The values below come from PubChem BioAssay AID1347073 (National Center for Advancing Translational Sciences (NCATS), 2019).

Structures are written as SMILES. The campaign covered roughly 45,000 compounds. About 200 (0.44%) were called active. Inconclusive results (about 7%) are left out. Calls come from the whole dose curve; as a rule, active = well fitted activation curve with a large enough effect; inconclusive = small, poorly fitted or top-dose-only effect; inactive = no such curve, though single readings can be large or run the other way. The list shows a part of the results.

The nature of the test: qHTS of TDP-43 Inhibitors: NCGC Sytravon Library Screen. Note: 0% is about no effect; nearly all actives have a fitted effect of over 55% in size. Particulars: yeast TDP-43 toxicity rescue, BacTiter-Glo growth, 24 h; series mostly up to 46.1 µM; growth rescue (activation): at the top concentration. In outline:
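TDP-43-expressing yeast, pregrown in raffinose, seeded at OD600 0.02 in galactose medium with compound for 24 hr at 30 deg C. Growth read by BacTiter-Glo luminescence, so rescue of toxicity appears as activation.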
In general terms: Quantitative high-throughput screening tests each substance at several concentrations.
As to `CC(OC(=O)c1nc(-c2ccccc2)n(-c2ccccc2)n1)C(=O)Nc1cc(Cl)cc(Cl)c1` (centres undefined), the “growth rescue (activation)” value is inactive: 15.4%. The result for `O=C(NCCCn1ccnc1)/C(=C\c1cccnc1)NC(=O)c1ccco1` reads inactive: 4.34%; that for `CC1(C(=O)NS(=O)(=O)c2cccc(C#N)c2)CCN1C(=O)CC1CCCCC1` (centres undefined), inactive: 3.11%; that for `CCc1nnc(NC(=O)CCS(=O)(=O)Cc2ccccc2)s1`, inactive: 3.74%. `Cc1cccc(C)c1Nc1nnc(SCc2nc3ccccc3c(=O)[nH]2)s1`: the “growth rescue (activation)” value is inactive: -15.2%.

For `COc1cc(NS(=O)(=O)c2ccc(NC(=O)CCC(=O)O)cc2)nc(OC)n1`, the “growth rescue (activation)” value is inactive: -26.4%. For `O=C(COC(=O)CNC(=O)c1ccccc1F)NCCC1=CCCCC1`, the “growth rescue (activation)” value was inactive: -2.34%. `CCOC(=O)C1CCCN(c2nc3ccccc3nc2C(C#N)C(=O)OC(C)COC)C1` (centres undefined): the “growth rescue (activation)” value is inactive: 20.7%.

Turning to `C=Cc1ccc2c(c1)N(C)C(=C)S2`, the “growth rescue (activation)” value is inactive: 26.4%. As to `COc1cc(/C=C2/C(=O)NN(c3ccc(F)cc3)C2=O)cc(Cl)c1O`, the “growth rescue (activation)” value was inactive: -1.28%.

Take `NC(=O)c1ccccc1OCc1nnc(-c2ccccc2Br)o1`: the “growth rescue (activation)” value was inactive: -4.87%. `CCN(CC)CCNc1ncnc2c1sc1nc(N3CCOCC3)c3c(c12)CCCC3`: the “growth rescue (activation)” value is inactive: 18.2%.

As to `Cc1ccc(NC(=O)Cc2n[nH]c(=S)n2C)cc1`, the “growth rescue (activation)” value is inactive: 3.61%. Take `COc1cc(C2c3[nH]c4ccccc4c3CCN2Cc2cn(C)nc2C)ccc1F` (centres undefined): the “growth rescue (activation)” value is inactive: 0.758%. With `Cc1ncc(CO)c(/C=N/NC(=S)Nc2ccc(F)cc2)c1O`, the “growth rescue (activation)” value is inactive: 19.6%. `COc1ccc(Nc2ccc(N3C(=O)CCCC3=O)cc2[N+](=O)[O-])c(OC)c1`: the “growth rescue (activation)” value is inactive: 9.51%. Consider `CCN(CC)c1ccc2c(c1)OC(N)=C(C#N)C2c1cccnc1` (centres undefined), for which the “growth rescue (activation)” value was inactive: 23.5%. On to `CC(C)(C)c1ccc(C(=O)NC(=S)Nc2nc3c(s2)CCCC3)cc1`, for which the “growth rescue (activation)” value is inactive: -14%. In the case of `O=C(COC(=O)c1ccco1)NC12CC3CC(CC(C3)C1)C2`, the “growth rescue (activation)” value is inactive: 4.55%. The result for `C=CCN1C(=O)C(CC(=O)Nc2ccccc2F)S/C1=N\c1nccs1` (centres undefined) reads inactive: -9.87%; that for `CC(OC(=O)c1ccc([N+](=O)[O-])o1)C(=O)Nc1nc(-c2ccc(F)c(F)c2)cs1` (centres undefined), inactive: -92.6%; that for `CCN1CCN(S(=O)(=O)c2ccc(C)c([N+](=O)[O-])c2)CC1`, inactive: 6.79%.

Consider `Cc1ccc(OCCSc2nc3ccccc3n2CCC(=O)O)cc1C`, for which the “growth rescue (activation)” value is inactive: 1.07%. Regarding `COc1cc(/C=N/Nc2cc(C)nc(NS(=O)(=O)c3ccc(C)cc3)n2)ccc1O`, the “growth rescue (activation)” value was inactive: 3.31%.

Take `COCCC(=O)N1CCC(Oc2ccc(C(=O)NCCc3ccccn3)cc2)CC1`: the “growth rescue (activation)” value is inactive: -17.7%. Turning to `CCCCNC(=O)C1(C)CCN1C(=O)c1ccc(OC)c(C(F)(F)F)c1` (centres undefined), the “growth rescue (activation)” value was inactive: 16.7%.

Take `CCCNC(=O)Nc1ccsc1C(=O)OC`: the “growth rescue (activation)” value is inactive: 5.92%. Regarding `Cc1nnc(SCC(=O)N2c3ccccc3CC2C)[nH]c1=O` (centres undefined), the “growth rescue (activation)” value is inactive: 10%. Then `O=C(Cc1c(F)cccc1Cl)OCC(=O)c1ccc[nH]1`, with inactive: 11.6%; and `Cc1cccc(/C=N/NC(=O)Cc2cccs2)c1`, with inactive: 20.5%. Consider `CC(C)c1nnc(SCC(=O)NC(C)(C)C)n1C`, for which the “growth rescue (activation)” value is inactive: -7.76%. Regarding `COC(=O)COc1ccc(/C=N/NC(=O)CN(c2ccccc2OC)S(=O)(=O)c2ccccc2)cc1`, the “growth rescue (activation)” value is inactive: 4.33%. Regarding `COc1ccc(-c2cc(C(=O)Oc3ccc(Cl)cc3)c3ccccc3n2)cc1`, the “growth rescue (activation)” value was inactive: -5.56%. As to `Cc1cccc(C(C)C)c1NC(=O)CSc1cccc[n+]1[O-]`, the “growth rescue (activation)” value was inactive: -2.56%.

For `CC(=O)OCCCCON1C(=O)c2ccccc2C1=O`, the “growth rescue (activation)” value is inactive: 19.4%. With `COc1ccc(-c2[nH]ncc2CN(C)CCCN2CCOCC2)cc1F`, the “growth rescue (activation)” value was inactive: -17.5%. `COc1ccc(-c2csc(C3=C(O)CN(C(C)C)C3=N)n2)cc1OC`: the “growth rescue (activation)” value is inactive: -14.6%. The result for `CN(C(=O)CSc1nc2ccccc2c(=O)n1-c1ccc(F)cc1F)C1CCS(=O)(=O)C1` (centres undefined) reads inactive: 33.2%; that for `COc1ccccc1-c1nnc(SC/C(O)=C(\C#N)c2nc3ccccc3[nH]2)n1C1CCCCC1`, inactive: 6.13%. The result for `O=S(=O)(Nc1ccc(Br)cn1)c1cccs1` reads inactive: 14.7%.

In the case of `Cc1cc(Nc2cccc(F)c2)nc(NCc2ccccc2)n1`, the “growth rescue (activation)” value was inactive: 8.83%. As to `CCOc1ccc(NCc2cccn2-c2nnc(N3CCC(C(=O)NC(C)c4ccccc4)CC3)s2)cc1` (centres undefined), the “growth rescue (activation)” value was inactive: 5.35%. As for `CN(C)c1ccc(P(=O)(OCc2ccccc2)C(O)c2ccccc2F)cc1` (centres undefined), the “growth rescue (activation)” value was inactive: 6.43%. For the compound `CC(=O)c1ccc(NC(=S)N2CCC(O)CC2)cc1`, the “growth rescue (activation)” value was inactive: 11.6%. On to `COc1ccc(S(=O)(=O)N2CC(C)N(C(=O)N(C)C)C2C)cc1` (centres undefined), for which the “growth rescue (activation)” value was inactive: 14.8%. Then `COc1ccc(CCNC(=O)CSCc2ccc([N+](=O)[O-])cc2)cc1OC`, with inactive: -1.66%; and `Cc1ccc(NC(=O)CN(C)S(=O)(=O)c2cnc[nH]2)cc1C`, with inactive: -1.68%; and `CCCCN(C(=O)Cc1cccc(F)c1)c1c(N)n(CCC)c(=O)[nH]c1=O`, with inactive: 11.3%. Regarding `O=C(c1nc2ccc(Cl)cn2c1CNCC[C@@H]1C[C@@H]2C=C[C@H]1C2)N1CCCCCCC1`, the “growth rescue (activation)” value was inactive: 11%. Take `COc1ccc(N2C(=NC(=O)c3ccccc3)SC3CS(=O)(=O)CC32)cc1` (centres undefined): the “growth rescue (activation)” value is inactive: -16.4%. Take `Cc1cc(C)nc(NC(=O)c2csnn2)c1`: the “growth rescue (activation)” value is inactive: 3.47%.

As for `CN1CCS/C1=C\C=C1/SC(=S)N(CC(=O)O)C1=O`, the “growth rescue (activation)” value is inactive: -4.57%. As to `CCCCN(CCCC)Cc1ccc(C(=O)NNC(=O)Nc2ccc(F)cc2)o1`, the “growth rescue (activation)” value was inactive: 1.76%. Take `COc1ccc(C(O)c2ncc(-c3cccc(OC)c3)[nH]2)cc1` (centres undefined): the “growth rescue (activation)” value is inactive: 11.7%.
